Self-cleavage data for 167 variants are collected here from the RNAGym collection of RNA variant scans (doi:10.1093/nar/gkz1192).

B1: CPEB3 Ribozyme (parent)
chain: UAACAGGGGGCCACAGCAGAAGCGUUCACGUCGCAGCCCCUGUCAGAUUCUGGUGAAUCUGCGAAUUCUGCUGUAUAUCUC

Read counts are not given, so values of variants with three or more changes are uncertain.

Variants of B1 are the subject of this data set. Description: self-cleavage, relative activity (ratio to wild type); higher = more cleavage; in vitro, sequencing. Put shortly: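 Relative activity was defined as the cleaved/total read fraction for a variant divided by the same fraction for the unmutated ribozyme. CPEB3 self-cleaving ribozyme libraries were made by rounds of error-prone PCR, barcoded, and transcribed in vitro with T7 RNA polymerase for 5 hours at 37°C, and cleavage ran through transcription plus a 15 min DNase I step before EDTA. Illumina sequencing of template-switched reverse transcripts gave the reads, and DNA sequencing mapped the barcodes. Averages come from three batches, using variants with at least 5 reads.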
With U1A U26C A35C C62A U69G, the self-cleavage was determined as 0.14. As for U1C A5U A65G U78C, the self-cleavage was found to be 0.46. U1A U54G U67C: the self-cleavage worked out at 0.18. Regarding U1C A2U U26A U49C, the self-cleavage turned out to be 0.26. The value for U1C A2U U31A A77G was 0.39; that for U1C A2G C32A A35G C79A U80C was 0.26. In the case of U1C A3G G33C U74C, the self-cleavage worked out at 0.51.

On to U1A G6A A21G C23A U26C A64U, for which the self-cleavage stood at 0.06. Under U1C A2G G7U A28G C44U U67A stands 0.05; under U1C A2G A18G C32A A35U C37A U67A, 0.05; under U1A G16A A47G, 0.28. The value for U1C A5G G9A A21U U26C U80A was 0.36; that for U1A U48C G52A U78C was 0.85. As for U1C A2G C11U U41A A77G, the self-cleavage worked out at 0.26. The value for U1C A5G A18G U48A A64G was 0.06. The value for U1A G9U A56G C62U was 0.17; that for U1A G19A U26A U54C A57G A64G A77G was 0.04; that for U1A U41C C50U U51A U72C was 0.84. The value for U1C A2G U25C A47G U60C was 0.64. Turning to U1A U51C A56G U60A U80C, the self-cleavage stood at 0.5. Under U1C A5G A35U U66C stands 0.22; under U1C A5U A28U C40A U80A C81G, 0.25; under U1C A3G G10A G22A U25C U54C C62U, 0.04. The value for U1A G7A A20U U25C U41A U66C U78C was 0.04; that for U1C A2G U54C was 0.71. The value for U1A G9U U80C was 0.38; that for U1A U25C U43A A64U was 0.1; that for U1C A2U A21G U25C A28G C40U U51C was 0.03. Turning to U1A G53A U66C A77U, the self-cleavage was 0.21. The value for U1A G9A U60C was 0.18. Under U1A G9U G33U A45G C50G A57G G61A stands 0.03.

For U1A G9A A56U, the self-cleavage is 0.06. Under U1C A5U U26C G52U stands 0.72. Under U1A U26C A35G A56G U67C stands 0.53; under U1C A3G A21G, 0.8. Under U1A U48C A64U U69C stands 0.28; under U1C A5G A35U U43C C62U A65C, 0.33; under U1A G9A G10A U25C U31C U43C A75G, 0.13.

Take U1C A3G U80A: the self-cleavage was determined as 1.12. Consider U1C A3G A56G U72C, for which the self-cleavage was 0.75. The value for U1C A2U G22A C40U U43C U67C was 0.05; that for U1A G10U A21G U31C A77G was 0.1; that for U1C A5G G42A G52A A57U was 0.29. The value for U1A U31A A35U U72C A77U U80C was 0.3; that for U1A U25A A35G was 0.07; that for U1A G16U A35U U48C U72A was 0.1. U1C A2G U26C A35G U49C: the self-cleavage came to 0.07. The value for U1A C40A U41C was 0.08; that for U1C A3G G73U was 1.22; that for U1C A2G A64G U69C was 0.46. With U1C A5G A21G C39U U67C G70A, the self-cleavage was 0.05. The value for U1A G7A A15G A18G U31C U41A A75U was 0.29. Take U1C A3G G16A G30A: the self-cleavage came out at 0.34. Under U1C A5G A20U A35G U54C A64G stands 0.12; under U1A U31C A35U U58C, 0.34. Under U1C A3G A5U A18U C23U U58C U72A stands 0.04; under U1C A3G U25A G63A, 0.12; under U1C A13C U60C, 0.12.

U1A G10A A35G: the self-cleavage came out at 0.79. On to U1A G8U A21G U25C A28G U69A U74C, for which the self-cleavage is 0.05.

Take U1C A2U G6U C39A U72C: the self-cleavage is 0.23. The value for U1A G9A U60C A64U was 0.15; that for U1A U43C U69C U80C was 0.22; that for U1A G8A C39A G73U was 0.15.

For the variant U1A U31C U54C A65G, the self-cleavage came out at 0.1. Under U1A G30A A57G stands 0.19.

Take U1A U25C U72C: the self-cleavage was 0.25. In the case of U1A U41C U58C U74A A77U, the self-cleavage was 0.61. Under U1A G33U G46A stands 0.22; under U1C A2G U43A, 0.79. The value for U1A C27U G36C C40U A65G G70A was 0.13. The value for U1C A5C C23U U69C U72C A77U U80C was 0.11. As for U1A U41C U54G, the self-cleavage was determined as 0.6. Take U1A U49C U80C: the self-cleavage amounted to 0.5. Under U1A G10A A13C A15U A28G U66C U67C stands 0.24; under U1A U41A U54C G63A, 0.39. U1A U54C G55C U60G: the self-cleavage is 0.14. Under U1C A3G A5G A57C C59U U69C stands 0.35; under U1A G33U C62U A77U, 0.2; under U1A G30C U69A A77G U80C, 0.08. On to U1C A3G A28G C34U U41G U67C U78C, for which the self-cleavage came out at 0.6. The value for U1A C39U G63A was 0.55. Under U1A C29U U54A U67A A75G stands 0.07. As for U1C A5U A15G A47G U54A A65G U74C, the self-cleavage amounted to 0.26. Under U1A U49A A64U stands 0.17; under U1C A5G A21U C39U U67C A77G, 0.24; under U1A C14U U25G A35U U49C, 0.06. For U1C A3G A21C U31C U49C U60C, the self-cleavage stood at 0. Under U1A C11U G52U stands 0.5; under U1C A2U C17A, 0.41.

In the case of U1C A5G U41C, the self-cleavage was 0.18. In the case of U1A C38U U49C U78C, the self-cleavage is 0.29. Under U1A U49C C71U U76C stands 0.15. The value for U1A C59A U72C was 0.25; that for U1A U41C U80C C81U was 1.1.

As to U1A G8A G33U G52C A57G U60C U69C, the self-cleavage stood at 0.05.

As to U1C A5G A35G G53A U69C A75G U78A, the self-cleavage amounted to 0.19. For U1C A5G A45U, the self-cleavage stood at 0.58. Under U1A U26A C44A stands 0.44; under U1C A5C A13G U25C A35G U49A, 0. The value for U1C A2U U25C U49C U60C was 0.06. The value for U1A G9A U26C A45G A47U U49A was 0; that for U1A C44U G53A U58G was 0.1. Consider U1A G10A A45U, for which the self-cleavage came to 0.31. Under U1A U26C A45C G46A U78A stands 0.63.

Consider U1C A2G A45G U49A G53C G73U A75U, for which the self-cleavage worked out at 0.57. Consider U1C A5U A13G U26C G55U U72C, for which the self-cleavage came to 0.25. Under U1C A5G G24A stands 0.32; under U1A C44U U51C, 0.35; under U1C A3U A18G U80A, 0.99. U1C A3G A64G: the self-cleavage was 0.36. Under U1C A5C G7U U41A stands 0.42. Under U1C A13C U26C U41A U60C stands 0.49. The value for U1C A3C A15G was 0.59; that for U1A U43A U51C was 1.09; that for U1C A2G C44U U66A was 0.41. For the variant U1A U25A C34U U43C U58C A64U, the self-cleavage came to 0.07. The value for U1C A3G U51A U80C was 0.69; that for U1A C34G A64U A75U was 0.16. As for U1A G7U C29U U72A, the self-cleavage stood at 0.14. The value for U1C A3G A21G U26G G30A A75U was 0.58. The value for U1A G22A A28C U41A was 0.2.

U1A U25C A35G U69G: the self-cleavage amounted to 0.11. Under U1A G52A U76C stands 1.11; under U1C A2G G6U A15G U78C, 0.1; under U1A G7U G52A, 0.4. Under U1C A3G G10A C11U U31A A57G U66G stands 0.06; under U1C A2G G10A A35U U69C, 0.22. The value for U1A G7U G10A A18U U26C U41A U76C was 0.05. As for U1C A2G U25C C32U C37A A47G, the self-cleavage is 0.05. Under U1A C23A U26C A28U U54C U67C U78C stands 0.09; under U1C A5G G61U U72C, 0.36; under U1A C23U G73A, 0.84. The value for U1A G8U A35U U67A was 0.33; that for U1C A3G C37U A65G U67A was 0.09; that for U1A C12A C44U C62A U78C was 0.12. The value for U1A C11U A18G U69A A77U was 0.12. On to U1A G30C U31C A45G, for which the self-cleavage turned out to be 0.15. Under U1C A5U U25A U41A U49A stands 0.08; under U1A U26C C32A U60A U72G, 0.08. The value for U1A G19U A47G U48A U80C was 0.43.

Regarding U1A G33U U69A, the self-cleavage is 0.16.

With U1C A3G A57U U66G, the self-cleavage stood at 0.19. U1A U31A U54A: the self-cleavage was found to be 0.67.

As for U1C A2U A15G A18U A35U A75U, the self-cleavage came to 0.05. For U1C A2G G6A, the self-cleavage is 0.4.

U1A G6A A21G A35G U58C U76A: the self-cleavage turned out to be 0.08. The value for U1A C32U A45C A57U was 0.09. As for U1A C11U A18U U31A A45U U80C, the self-cleavage came out at 0.06.

U1A U25A U60C U67C: the self-cleavage was found to be 0.08.

U1A C44U U60A C62U A64U U72C U78C: the self-cleavage stood at 0.05. U1A C37G C40U U51A: the self-cleavage was determined as 0.23. Under U1C A5G G6U A20U U80C stands 0.84; under U1A G30U G46U A65G A75G, 0.06.

Take U1A U67C U69C U72A: the self-cleavage is 0.21. Under U1A U25C U31C U72C stands 0.07; under U1A U25C A57G U78C C79A, 0.23. The value for U1C A13G A15G U43C was 0.07; that for U1A U26C A35G U49A U72C was 0.77; that for U1C A3G A13G U25C C29G U41C A64U was 0.09. As for U1C A5G G46A U74C, the self-cleavage was 0.5. The value for U1A C12U G16A U43A U60C A64G U72C was 0.09; that for U1C A2U G9U A64G U69C was 0.16. Under U1C A2G A5U U43G U72A stands 0.08; under U1C A2G A20G A64G, 0.66; under U1C A5G U26C C50U, 0.49. For the variant U1C A3G A20U U43A, the self-cleavage was found to be 0.51.
